Data published in PubChem BioAssay AID1508621 (National Center for Advancing Translational Sciences (NCATS), 2021).
Inconclusive results, whose numbers are uncertain, are shown with a selection of clear calls. Potencies beside an inconclusive call are fits to weak or partial responses and may not hold up. The source made the active and inactive calls. Calls follow the shape of the dose curve; as a rule, active = well fitted inhibition curve with a large enough effect; inconclusive = small, poorly fitted or top-dose-only effect; inactive = no such curve, though single readings can be large or run the other way.

Test: Confirmatory qHTS for Identification of Small Molecule Inhibitors of Huntingtin Promoter Activity; also: nearly all actives have a fitted effect of over 65% in size
Conditions: HEK293 HTT promoter firefly luciferase reporter, 24 h; series mostly up to 57.5 µM
Excerpt: Assay Provider: Russell L. Margolis M.D.
Department Neurology, Johns Hopkins University School of Medicine, Baltimore, MD
Huntington's Disease (HD) is a neurodegenerative disorder caused by a CAG repeat expansion in exon 1 of huntingtin (HTT). While there are currently no disease-modifying treatments for HD, recent efforts have focused on development of nucleotide-based therapeutics to lower HTT expression. As an alternative to siRNA or oligonucleotide methods, we hypothesized that suppression of HTT expression might be accomplished by small molecules that either (1) directly decrease HTT expression by suppressing HTT promoter activity or (2) indirectly decrease HTT expression by increasing the promoter activity of HTT-AS, the gene antisense to HTT that appears to inhibit expression of HTT.
We developed and employed a high throughput screen for modifiers of HTT and HTT-AS promoter activity using luminescent reporter HEK293 cells; of the 52,041 compounds tested, we identified 898 replicable hits. We used a rigorous stepwise approach to assess compound toxicity and the capacity of the compounds to specifically lower huntingtin protein in 5 different cell lines, including HEK293 cells, HD lymphoblastoid cells, mouse primary neurons, HD iPSCs differentiated into cortical-like neurons, and HD hESCs. We found no compounds which were able to lower huntingtin without lowering cell viability in all assays, though the potential efficacy of a few compounds at non-toxic doses could not be excluded.
SEQUENCE No. (1, 2, 3, etc.); […] (e.g., Cells, Incubation, Reagent, etc.); VALUE and DESCRIPTION.
1; Reagent; 4 uL; 2,500 Hek293 luciferase reporter cells per wells
3; Compound; 23 nL; Control inhibitor / compound library
5; Reagent; 2.5 uL; Firefly Luc reagent; Dual-Glo Luciferase Reporter Assay System (Promega)
6; Time; 10 min; room temperature incubation
7; Detection; Luminescence; FLuc
NOTES (numbers refer to sequence above)
1; High-throughput screening, measuring luminescence from a Hek293 luciferase reporter, was performed in 1,536 well white-walled tissue-culture treated plates. 2,500 cells were plated in 4 uL of Opti-MEM per well using a Multidrop Combi Reagent Dispenser (ThermoFisher).
2; Assay plates were cultured for 24 hours.
3; Control inhibitor (PTC124; final concentration of 50 uM) and compound library (at final concentrations of 460 nM - 57.5 uM) were added to the assay plate using the Kalypsis Pintool Robotic System equipped with 1536 pinheads.
4; Cells were then incubated for 24 hours at 37C prior to luminescence measurements.
5; In all cases, luminescence was measured using the Dual-Glo Luciferase Reporter Assay System (Promega) following the manufacturer's instructions.
6; Room temperature incubation.
7; Luminescence signal was obtained using the PerkinElmer ViewLux plate reader. Results were normalized to vehicle control (0% activity) and zero RLU (-100% activity).
Potency is read from the fitted curve at half-maximal effect; tags tell the direction and shape of the fitted curve.

| Compound | Potency |
| --- | --- |
| CCN(CC)S(=O)(=O)c1ccc(C(=O)NCCSc2c(-c3ccc(OC)cc3)[nH]c3ccccc23)cc1 | inconclusive: 6.75 µM [inhibitor, partial curve, poor fit] |
| COc1ccc(NC(=O)CN2CCCN(S(=O)(=O)c3ccc(Br)cc3)CC2)c(OC)c1 | inconclusive: 23.9 µM [inhibitor, single point] |
| CC(=O)c1c(C)oc2ccc(N(C(=O)c3ccncc3)S(=O)(=O)c3ccc(F)cc3C)cc12 | inconclusive: 15.1 µM [inhibitor, partial curve] |
| Cc1c(Cl)ccc2sc(N3CCN(C(=O)CCS(=O)(=O)c4ccc(F)cc4)CC3)nc12 | inconclusive: 5.36 µM [inhibitor, partial curve] |
| COc1cc2c(cc1OC)C(COc1ccc(C(C)C)cc1)N(C(=O)COc1ccccc1)CC2 (stereo not given) | inconclusive: 13.5 µM [inhibitor, partial curve] |
| O=C(Nc1ccc(Cl)c(Cl)c1)N(Cc1c[nH]c2ccccc12)C1CCCCC1 | inactive |
| CCc1ccc(NC(=O)Nc2cn(C)c(=O)c3ccccc23)cc1 | inactive |
| COc1cc(NC(=O)CSc2nc3nc(C)c(Cc4ccc(C)cc4)c(C)n3n2)cc(OC)c1 | inconclusive: 30.1 µM [inhibitor, partial curve] |
| O=C(CSc1nc(-c2cccc(F)c2)[nH]c1-c1ccccc1)Nc1ccc2c(c1)OCCO2 | inconclusive: 37.9 µM [inhibitor, single point] |
| COc1ccc(N2CCN(Cc3nc4c(c(=O)n(C)c(=O)n4C)n3C(C)C)CC2)cc1 | inconclusive: 5.36 µM [inhibitor, partial curve] |
| COc1ccc2oc(=O)c(C(=O)NCCc3c(C)[nH]c4ccc(C)cc34)cc2c1 | inconclusive: 30.1 µM [inhibitor, single point] |
| CC(C)(C)C(=O)NCCc1nc2ccccc2n1CCCCOc1ccc(Cl)cc1 | active: 26.9 µM |
| Cc1ccc(Nc2ccc(N3CCN(C(=O)c4ccc([N+](=O)[O-])cc4Cl)CC3)nn2)cc1 | inconclusive: 26.9 µM [inhibitor, single point] |
| COc1cc(OC)cc(C(=O)Oc2c(Sc3ccccc3)c(C)nn2C(C)(C)C)c1 | inconclusive: 26.9 µM [inhibitor, partial curve] |
| CCc1ccc(NC(=O)c2ccc(F)c(S(=O)(=O)N3CCC(C)CC3)c2)cc1 | inconclusive: 1.69 µM [inhibitor, full curve] |
| O=C(NCc1ccc(F)cc1)C1CCN(C(=O)c2ccc(-n3ccc4ccccc43)s2)CC1 | inconclusive: 37.9 µM [inhibitor, single point] |
| CCOc1ccc(C2=C(C(=O)CC)Sc3nncn3N2C(=O)CC)cc1 | inactive |
| Cc1ccc(CN2CCSc3ccc(C(=O)NCC(C)c4ccccc4)cc32)cc1 (stereo not given) | inactive |
| CCN1C(=O)c2ccccc2Sc2ccc(NC(=O)Nc3ccccc3OC)cc21 | inconclusive: 26.9 µM [inhibitor, partial curve] |
| O=C(NCCn1cc(SCc2ccccc2)c2ccccc21)c1cccs1 | inconclusive: 26.9 µM [inhibitor, single point] |

| Compound | Potency |
| --- | --- |
| CCc1ccc(CNC(=O)c2cccc(-n3c(C)nc4cccnc43)c2)cc1 | inconclusive: 9.53 µM [inhibitor, partial curve] |
| COc1ccc(-n2nc3c(N4CCCC(C(=O)NCCc5ccc(C)cc5)C4)nnc(C)c3c2C)cc1 (stereo not given) | inconclusive: 23.9 µM [inhibitor, single point] |
| O=C(Nc1ccc2c(c1)CCCN2C(=O)c1cccs1)c1cccc(C(F)(F)F)c1 | inconclusive: 26.9 µM [inhibitor, partial curve] |
| COc1ccc(N2CCN(C(=O)c3cc4c(-c5ccccc5F)nn(C)c4s3)CC2)cc1 | inconclusive: 21.3 µM [inhibitor, partial curve] |
| CCc1cccc(C)c1NC(=O)COCc1cc(-c2ccc3c(c2)OCO3)on1 | inconclusive: 26.9 µM [inhibitor, partial curve] |
| COC(=O)c1c(C)oc2ccc(N(C(=O)c3ccncc3)S(=O)(=O)c3ccc(OC)cc3)cc12 | active: 3.79 µM |
| CCCOc1ccccc1C(=O)N1CCC(c2nc3ccccc3s2)CC1 | inconclusive: 26.9 µM [inhibitor, single point] |
| CCc1ccc2c(c1)-c1ccccc1S(=O)(=O)N2CC(=O)N1CCCCC1 | inactive |
| Cc1ccc(Cl)cc1N1CCN(CCCNC(=O)C2COc3ccccc3C2)CC1 (stereo not given) | inconclusive: 16.9 µM [inhibitor, partial curve] |
| COc1ccc(NC(=O)C(=O)NCC(c2cccnc2)N2CCc3ccccc3C2)cc1 (stereo not given) | inconclusive: 13.5 µM [inhibitor, partial curve] |
| Cc1ccc(CCNC(=O)c2cc3c(s2)-c2ccccc2OC3)cc1 | inconclusive: 23.9 µM [inhibitor, single point] |
| CCCCOc1ccc(CNC(=O)Cc2ccc(NC(=O)N3CCSc4ncccc43)cc2)cc1 | inconclusive: 26.9 µM [inhibitor, single point] |
| Cc1ccc(C)c(NC(=O)Cn2c(-c3nonc3N)nc3ccccc32)c1 | inconclusive: 9.53 µM [inhibitor, partial curve] |
| CCOc1ccc(/C=C/c2nc(C#N)c(NCc3ccccc3)o2)cc1 | inconclusive: 0.239 µM [inhibitor, full curve] |
| COc1cc(Cn2c(=O)oc3ccc(C)cc32)ccc1OCCC(C)C | inconclusive: 26.9 µM [inhibitor, partial curve, poor fit] |
| COc1ccc(C2=C(C)C(=O)N(Cc3ccc(C(=O)Nc4cccc(F)c4)cc3)S2(=O)=O)cc1 | inconclusive: 7.57 µM [inhibitor, full curve] |
| Cc1ccc(CNC(=O)c2ccc(CSc3nc4ccncc4n3Cc3ccc(C)cc3)cc2)cc1 | inconclusive: 16.9 µM [inhibitor, partial curve] |
| CCC(C(=O)NCCc1cc(OC)ccc1OC)n1nc(C)c2c(C)n(-c3ccccc3)nc2c1=O (stereo not given) | inconclusive: 30.1 µM [inhibitor, partial curve] |
| Cc1ccc(-n2ccnc(NCCc3ccc(S(N)(=O)=O)cc3)c2=O)c(C)c1 | inconclusive: 23.9 µM [inhibitor, partial curve] |
| COc1ccc(Cl)cc1Nc1sc(C(=O)c2ccccc2)c(N)c1C(=O)Nc1ccccc1 | inconclusive: 10.7 µM [inhibitor, partial curve] |
